Measured values as given in the supplement of paper PMC4166925.
± gives the standard deviation of the averaged measurements. Whole data set: some 33,000 sequences, median “E-score (dimensionless, -0.5 to 0.5)” near -0.046, cut for the highest 2% near 0.36. The list shows a part of the results.

System: T1, SpTbr T-box DNA-binding domain (GST fusion)
T1 sequence: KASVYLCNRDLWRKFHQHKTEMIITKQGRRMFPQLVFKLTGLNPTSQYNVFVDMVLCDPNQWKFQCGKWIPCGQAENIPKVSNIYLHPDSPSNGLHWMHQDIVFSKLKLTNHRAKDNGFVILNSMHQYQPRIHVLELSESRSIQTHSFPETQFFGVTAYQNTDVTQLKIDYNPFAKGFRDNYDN
Test: PBM E-score of 8-mer (E-score (dimensionless, -0.5 to 0.5)); Tbr is Tbrain of the sea star Patiria miniata (Pm) or the sea urchin Strongylocentrotus purpuratus (Sp); higher = stronger binding preference; most listed sequences are background and not binding sites
Conditions: the construct has about 5 more residues each side
In short: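 Primer extension turned Universal Agilent oligonucleotide arrays double-stranded. They were incubated with 200 nM protein in PBS (pH 7.5); the protein was a GST-fused Tbr T-box DNA-binding domain expressed in BL21 E. coli at 20 °C and purified on glutathione. Every ungapped 8-mer was scored from the scanned, quantified probe intensities, and the Universal PBM Analysis Suite gave each an enrichment E-score averaged over duplicate arrays.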

Sequence	PBM E-score of 8-mer
CCGGAAGC	-0.184 ± 0.0028
TAACTGCA	-0.142 ± 0.029
CTACAATA	-0.243 ± 0.05
CGCTCGTA	-0.16 ± 0.05
AAGTGAGA	0.4 ± 0.018
GCTACAAC	-0.103 ± 0.082
TAGCGGGA	0.129 ± 0.0016
ATCATCAA	-0.0434 ± 0.035
ATTCTCTC	0.184 ± 0.073
TCGATGAA	-0.0667 ± 0.029
GAGACGAA	0.0902 ± 0.03
CTTCGTTC	-0.225 ± 0.016
CGAGACCC	0.023 ± 0.087
CGTGTTCC	-0.00256 ± 0.0016
GCGTCTCC	-0.148 ± 0.032
AGGTGCCA	0.46212 ± 0.00034
CTTGATGC	-0.133 ± 0.077
AGATGGAG	-0.0973 ± 0.04
ATAATGAT	-0.0307 ± 0.086
GAAAAAAC	-0.168 ± 0.084
CTTTCTCA	0.0539 ± 0.05
ATACGGTA	-0.0948 ± 0.036
ATACCACA	0.0405 ± 0.0085
GCGGTAGC	0.0482 ± 0.081
GAGTAGGC	-0.0954 ± 0.017

Sequence	PBM E-score of 8-mer
CACCTGGC	0.389 ± 0.021
ACCCAACC	-0.172 ± 0.05
TCGGCAGA	-0.151 ± 0.026
AAGAACTT	-0.161 ± 0.0073
ACCTAACC	0.1222 ± 0.0011
CCAATCTC	-0.0229 ± 0.042
CCAAATAA	-0.267 ± 0.079
GTATCTTA	-0.126 ± 0.009
ATGGTATG	-0.153 ± 0.00027
AAATCAAG	0.0228 ± 0.13
ACATGACA	0.273 ± 0.012
ACCGCTTC	0.134 ± 0.052
CCAGGTGA	0.306 ± 0.012
AGGGGGAC	-0.244 ± 0.00034
ATGCCTGC	-0.295 ± 0.061
CTACGTAA	-0.143 ± 0.038
ATGGAGGC	-0.106 ± 0.12
CATACAGA	-0.139 ± 0.074
AAGTTCGA	-0.1837 ± 0.00034
AAGCTTGT	-0.0869 ± 0.0036
GCCGTCAA	0.18 ± 0.028
CGAGCTTA	-0.102 ± 0.052
CCTGATCC	-0.0305 ± 0.061
AGCGACAA	0.277 ± 0.011
AAGGTTTG	-0.161 ± 0.046

Sequence	PBM E-score of 8-mer
CTTCTGCC	-0.0597 ± 0.052
GTTTGGCA	0.184 ± 0.0023
TATGGCAA	-0.0439 ± 0.069
CCTATCTC	0.103 ± 0.0033
GACGGCTC	0.055 ± 0.031
CTGGAGCA	-0.207 ± 0.0043
AAATACCC	-0.264 ± 0.063
GCTCGGCC	-0.171 ± 0.024
GCAAAGCA	0.0155 ± 0.053
CTATCGAC	0.139 ± 0.016
CTCCCGTC	-0.079 ± 0.017
ACAGTACT	-0.0283 ± 0.067
AGGGCTCA	-0.185 ± 0.029
AATCGGGA	-0.172 ± 0.031
CTGTACGC	-0.142 ± 0.069
GCCGAAAA	-0.0477 ± 0.021
AGTCAACT	-0.022 ± 0.024
CTAGTGCA	0.168 ± 0.053
ACAAATTC	0.0389 ± 0.035
CAATCGGC	0.0185 ± 0.0079
CACAATAA	0.11 ± 0.04
CCAAGCTC	-0.0336 ± 0.11
CAGTATTC	-0.193 ± 0.092
TGTGCCAA	0.364 ± 0.021
GCCAAACA	0.0846 ± 0.072

Sequence	PBM E-score of 8-mer
CCTGACAG	0.121 ± 0.0013
GCCGCACC	0.339 ± 0.023
GGTCGAAA	-0.0954 ± 0.061
GACCCTAC	-0.123 ± 0.017
CGCGGTAA	0.1 ± 0.0039
AGGGCCTC	-0.335 ± 0.053
AAGGCTGT	0.145 ± 0.065
GGTACTCA	-0.0116 ± 0.057
ATAGCGAT	-0.0941 ± 0.058
CCCTTCAC	0.244 ± 0.03
GGTTCGTA	-0.0542 ± 0.047
GCACCATA	0.0415 ± 0.021
CTGCCGTA	-0.211 ± 0.037
TATCACAA	0.284 ± 0.056
CTTTTGTC	-0.0884 ± 0.067
CATTTTAG	0.04 ± 0.0022
CGCTCCAC	-0.132 ± 0.071
ACAGCCTC	-0.149 ± 0.017
TCTTTACA	0.157 ± 0.019
TAGAGCAA	-0.253 ± 0.0093
ATTCGAAG	-0.0382 ± 0.12
AGCTAAAA	0.0957 ± 0.021
ATGGCATG	0.06 ± 0.077
TGATCGAA	-0.00359 ± 0.012
GTCGGCGA	0.137 ± 0.014

Sequence	PBM E-score of 8-mer
CAGCTCAG	0.0773 ± 0.05
AATGGTGT	0.316 ± 0.036
ATATTTCC	-0.1629 ± 0.0002
CCTGTCCC	-0.0493 ± 0.082
TATGCCGA	-0.213 ± 0.032
CGTGTCCA	0.0571 ± 0.015
AGAACCTG	-0.00272 ± 0.02
ATGTCGTA	-0.0703 ± 0.05
GATTAAAC	0.0727 ± 0.084
TAACGATA	0.00856 ± 0.011
AGGGCGGA	-0.0328 ± 0.0044
ACCAAGTG	0.199 ± 0.021
AGGGACTC	-0.0519 ± 0.037
CCACTTAA	0.0113 ± 0.00066
ACAGTTGC	0.2768 ± 0.00088
ATTTACCA	-0.133 ± 0.039
CCGCTTCC	0.0652 ± 0.037
AGGTGCTC	0.012 ± 0.081
AAGAGATC	0.028 ± 0.024
CATCTACG	-0.134 ± 0.057
AGCCCCAC	0.0849 ± 0.074
AAACTCGC	0.167 ± 0.0056
GGGCTGGA	-0.388 ± 0.041
CGTTCAAG	-0.167 ± 0.0076
ACAGTGGC	0.0158 ± 0.0033

Sequence	PBM E-score of 8-mer
GCAGAGGA	-0.273 ± 0.021
TACCTCGA	-0.00303 ± 0.087
CAGTAACG	0.126 ± 0.048
TCCCATAA	-0.16 ± 0.022
AACACAGT	0.274 ± 0.042
GGATACCA	-0.161 ± 0.08
GATACCGA	-0.127 ± 0.0088
GAGAGTAC	-0.0949 ± 0.017
AGGGAGTC	-0.00783 ± 0.071
AAGGTCGT	-0.199 ± 0.0057
AAAGCCTC	0.168 ± 0.024
AGTGGAGC	-0.0127 ± 0.11
ATAAATCA	0.0094 ± 0.1
CCGGTGAA	-0.0867 ± 0.0072
TATGCCAA	0.0137 ± 0.0024
CGGAGCTA	-0.15 ± 0.1
AGGTGGCA	0.432 ± 0.015
CTACGGAA	-0.182 ± 0.049
AACTTGAC	0.178 ± 0.0071
CCCTGCAC	0.0307 ± 0.017
GCATTAGA	-0.353 ± 0.067
GCGCCGAC	-0.00125 ± 0.061
GCCTGTTA	-0.044 ± 0.03
GGCAACCA	0.000925 ± 0.0078
AGATGAAG	0.0432 ± 0.049

Sequence	PBM E-score of 8-mer
ACTCATGG	0.0349 ± 0.013
AGGGGCTG	-0.214 ± 0.027
ATTTCTTC	0.11 ± 0.029
CCATTGCA	-0.0399 ± 0.012
CCGTAGCC	-0.145 ± 0.04
ACTTACTG	-0.00968 ± 0.024
CAATTGAC	0.231 ± 0.0041
CTCGAACA	0.00677 ± 0.052
ACCGACCG	-0.127 ± 0.033
AGTTCTAC	-0.102 ± 0.002
CCACCGCC	0.0612 ± 0.044
ATTTGGCA	0.0982 ± 0.12
GAGACTCA	-0.152 ± 0.051
CTGCTTAA	-0.0083 ± 0.048
CCAGTTAG	-0.0951 ± 0.0013
CTGCCCAG	-0.31 ± 0.014
CAGCTAAG	0.076 ± 0.039
CTGAAGTA	-0.116 ± 0.026
ACAACGTG	0.12 ± 0.027
CGGCAACG	0.106 ± 0.0022
GGCTAGAC	-0.23 ± 0.003
CGGTAATC	-0.0705 ± 0.081
